Publication PMC3924327
Results are given in words; binding and its absence hold for the method and conditions named. Binding seen in cells or lysates may run through a third protein. Some results given as binding are weak or reduced against the parent protein; the word gives no strength.

The chains behind the UniProt entries cited, without tags or fusion partners. Where a name states a change or a piece, a line headed by the entry shows the natural chain unless it says otherwise. Residues count along the entry.
cav-1_(2-31) peptide (Q03135, residues 2-31): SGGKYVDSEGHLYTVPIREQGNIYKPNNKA
cav-1_(19-40) peptide (Q03135, residues 19-40): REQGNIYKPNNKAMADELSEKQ
cav_(76-101) peptide (Q03135, residues 76-101): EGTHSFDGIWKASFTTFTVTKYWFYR
UniProt P04512: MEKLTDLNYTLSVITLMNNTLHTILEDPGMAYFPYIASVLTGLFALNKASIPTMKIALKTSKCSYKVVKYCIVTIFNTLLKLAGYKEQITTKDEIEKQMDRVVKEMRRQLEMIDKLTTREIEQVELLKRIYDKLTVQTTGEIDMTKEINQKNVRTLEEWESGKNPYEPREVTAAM

Assays:
Assay in all cases: pull-down; only the target purified
cav-1_(2-31) peptide = cav-1_(2-31) peptide (UniProt Q03135)
cav-1_(19-40) peptide = cav-1_(19-40) peptide (UniProt Q03135)
cav-1_(161-178) peptide = cav-1_(161-178) peptide (UniProt Q03135)
cav_(76-101) peptide = cav_(76-101) peptide (UniProt Q03135)

Substance	binding (cav-1_(2-31) peptide)	binding (cav-1_(19-40) peptide)	binding (cav-1_(161-178) peptide)	binding (cav_(76-101) peptide)
FLNSP4 (full-length NSP4) expressed in yeast (from UniProt P04512 1-175)	binds	binds	binds	no binding
NSP4_(46-175) expressed in yeast (from UniProt P04512 46-175) (domain or fragment)	binds		binds	
